Results on two substances are retold here after PMC11755959.

Chains of the proteins cited; added tags and fusions are not shown.
UniProt P14635: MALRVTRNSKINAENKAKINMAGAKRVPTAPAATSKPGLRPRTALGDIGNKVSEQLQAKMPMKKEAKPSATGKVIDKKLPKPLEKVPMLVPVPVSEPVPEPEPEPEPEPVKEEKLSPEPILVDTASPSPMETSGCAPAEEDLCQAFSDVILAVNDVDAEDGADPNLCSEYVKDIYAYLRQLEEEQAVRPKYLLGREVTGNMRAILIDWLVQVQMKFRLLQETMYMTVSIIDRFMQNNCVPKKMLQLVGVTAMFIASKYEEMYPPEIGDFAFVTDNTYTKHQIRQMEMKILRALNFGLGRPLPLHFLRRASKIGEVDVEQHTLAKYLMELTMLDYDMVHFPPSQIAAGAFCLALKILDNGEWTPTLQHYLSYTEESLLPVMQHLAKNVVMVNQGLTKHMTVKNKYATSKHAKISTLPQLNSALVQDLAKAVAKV

The target in experiment [1] is T1, CCNB1IP1 187–277 truncate (human) (UniProt Q9NPC3).
T1 sequence: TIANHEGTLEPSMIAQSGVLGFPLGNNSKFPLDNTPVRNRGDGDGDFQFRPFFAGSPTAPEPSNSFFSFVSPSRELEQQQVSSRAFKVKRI
The experiment in a line: co-IP; WT and truncates (1-77, 78-186, 187-277) of CCNB1IP1 with MYC-cyclin B1; immunoprecipitation, blot for MYC; cell line not stated.

In experiment [2] the target is T2, CCNB1IP1 1–77 truncate (human) (UniProt Q9NPC3).
T2 sequence: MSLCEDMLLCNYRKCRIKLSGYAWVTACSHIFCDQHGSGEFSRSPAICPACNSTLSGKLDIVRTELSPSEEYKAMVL
The description is as above.

Experiment [3] concerns the target T3, CCNB1IP1 78–186 truncate (human) (UniProt Q9NPC3).
T3 sequence: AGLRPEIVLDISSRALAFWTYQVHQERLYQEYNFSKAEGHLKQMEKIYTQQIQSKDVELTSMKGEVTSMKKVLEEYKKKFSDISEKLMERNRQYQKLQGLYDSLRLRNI
The description is as above.

Experiment [4] addresses T4, FLAG-tagged CCNB1IP1 (human) (UniProt Q9NPC3).
T4 sequence: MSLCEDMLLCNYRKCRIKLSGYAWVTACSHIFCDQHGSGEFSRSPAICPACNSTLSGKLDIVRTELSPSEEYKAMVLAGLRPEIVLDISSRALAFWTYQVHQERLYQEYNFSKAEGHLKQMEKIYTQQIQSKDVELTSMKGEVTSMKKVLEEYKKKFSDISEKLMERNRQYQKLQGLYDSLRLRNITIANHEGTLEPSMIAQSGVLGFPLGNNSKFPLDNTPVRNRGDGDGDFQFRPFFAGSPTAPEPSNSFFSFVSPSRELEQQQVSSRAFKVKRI
The experiment is described as above.

In experiment [5] the target is T4, FLAG-tagged CCNB1IP1 (human). The experiment in a line: co-IP; FLAG-tagged CCNB1IP1 vector transfected into MHCC-97 H cells; 1% NP-40 lysis buffer (137 mM NaCl, 50 mM Tris-HCl pH 7.6, 1 mM EDTA, 10% glycerol); antibody overnight at 4 °C, protein G plus-agarose 2 h; Western blot for cyclin B1. A general note: A western blot detects proteins with antibodies after separation by electrophoresis.

No constants are given. Whether binding was seen depends on the method and setting. Binding seen in cells or lysates may run through a third protein. Some entries that bind do so weakly or less than the wild type. For some assays here: Sequences can lack the tags named with a protein.

As to “MYC-tagged cyclin B1 (from UniProt P14635 1-433)”, the binding result is given as “no binding” in experiment [1], “binds” in experiment [2], “no binding” in experiment [3] and “binds” in experiment [4].
Take cyclin B1 (from UniProt P14635 1-433): in experiment [5], the binding result is recorded as “binds”.
